Out of some 52,000 compounds screened, about 4,300 (8.3%) were called active. Cut-off read from the data, not from the text of the source: active = survival mostly below about 52% (no sharp cut-off); inactive = mostly above about 56%. Some of the results follow.

The assay deals with DeltatarO mutant. The experiment in a line: S. aureus survival, RN4220 and DeltatarO strains – OD600, teichoic acid synthesis inhibitors, primary screen (AID 463173). The following applies: S. aureus RN4220 wild type/DeltatarO growth, OD600, 18 h, stronger effect = lower value, screened at 18.75 µg/mL (by protocol).
Regarding `Cc1ccc(C(=O)N2CCN(Cc3cc(=O)n4nc(-c5ccccc5)sc4n3)CC2)cc1`, the survival is inactive: 55%.
For `COc1ccccc1CNC(=O)CSc1nc(=O)[nH]c2c1CCCC2`, the survival is inactive: 101%.
To `CCN(Cc1ccccc1)C(=O)Cn1c(=O)n(-c2ccc(Cl)c(Cl)c2)c(=O)c2c(C)c(C(=O)N(C)C)sc21` belongs inactive: 64%.
Under `Cc1ncsc1C(=O)O` stands inactive: 86%; under `Cc1ccc(NC(=O)CCn2c(=O)c3cccn3c3ccccc32)cc1Cl`, active: 45%; under `O=C(CSc1nc(=O)n(Cc2ccco2)c2c1CCC2)NCc1ccc(Cl)cc1`, inactive: 69%.
With `C=CCSc1nc(O)c(CC(C)C)c(=O)[nH]1`, the survival is inactive: 62%.
On to `COc1cc(OC)c(NC(=O)Cn2cnc3sc(C)c(S(=O)(=O)N4CCC(C)CC4)c3c2=O)cc1Cl`, for which the survival was inactive: 83%.
For the molecule `COc1ccc(N2CC(NC(=O)C(=O)c3c(C)[nH]c4ccccc34)CC2=O)cc1` (stereo not given), the survival is inactive: 89%.
To `CCc1ccc(CNC(=O)C2CCN(c3nnc(C)c4c(C)n(-c5ccc(C)cc5)nc34)CC2)cc1` belongs inactive: 78%.
Under `CCOc1ccc(N(C(C)C(=O)NCCSc2ccc(Cl)cc2)S(C)(=O)=O)cc1` (stereo not given) stands inactive: 54%; under `Cc1cc(NC(=O)c2cc(-c3ccc(Br)cc3)on2)nn1Cc1ccc(Cl)cc1`, inactive: 155%.
To `CC(=O)c1cccc(-n2c(=O)c3c4c(sc3n(CC(=O)Nc3ccccc3F)c2=O)CN(C(C)=O)CC4)c1` belongs inactive: 123%; to `CCOC(=O)Cn1c(=O)c2c(nc(N3CCOCC3)n2Cc2ccccc2)n(C)c1=O`, active: 43%; to `CC(C)(CC(=O)OCC(=O)Nc1ccccc1F)CC1=NS(=O)(=O)c2ccccc2N1`, inactive: 76%.
Regarding `O=C(COc1ccc([N+](=O)[O-])cc1)N1CCC(c2nc3ccccc3s2)CC1`, the survival is inactive: 82%.
Under `Cc1ccc(-c2nnc(SCC(=O)N3CCCc4ccccc43)o2)cc1` stands inactive: 63%; under `CCCCNc1nc(Oc2ccc(=O)n(-c3ccccc3)n2)nc(N(CC)CC)n1`, inactive: 81%; under `COc1ccc(NCc2nnc(SCC(=O)c3ccc(OC)cc3)n2C)cc1`, inactive: 76%.
Under `O=C(Nc1nnc(S(=O)(=O)N2CCCCCC2)s1)c1ccccc1F` stands active: 47%.
To `CCOC(=O)C1CCN(c2cc(C)nc3c(-c4ccccc4OC)c(C)nn23)CC1` belongs inactive: 70%; to `O=C(Cn1nc(-c2ccccc2)c2cnc3ccc(F)cc3c21)NC1CCCC1`, inactive: 102%.
With `CCCCNC(=O)Cn1c(-c2ccc(C)cc2)noc1=O`, the survival was inactive: 102%.
Under `CCOc1cccc2sc(N3CCN(C(=O)C(C)(C)C)CC3)nc12` stands inactive: 77%; under `COc1ccc(NC(=O)Cn2cc(C(=O)c3ccncc3)c(=O)c3cc(C)ccc32)cc1Cl`, inactive: 75%.
